From PMC6919601, “Identification of Plasmodium dipeptidyl aminopeptidase allosteric inhibitors by high throughput screening” (PLoS ONE, 2019)
About 230 (0.21%) of roughly 110,000 compounds showed an effect of 50% or more. This is one part of the list.

target: DPAP1 (Plasmodium falciparum, UniProt Q8IIJ9); experiment: primary screen, percent inhibition; read by cleavage of a fluorogenic dipeptide substrate; higher = more effect of the substance; design: species or system P. falciparum D10 trophozoite lysates; single well
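Also: 30 min substrate incubation versus DMSO and 10 µM JCP410 controls.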

DPAP1, sequence (Q8IIJ9 whole entry, looked up): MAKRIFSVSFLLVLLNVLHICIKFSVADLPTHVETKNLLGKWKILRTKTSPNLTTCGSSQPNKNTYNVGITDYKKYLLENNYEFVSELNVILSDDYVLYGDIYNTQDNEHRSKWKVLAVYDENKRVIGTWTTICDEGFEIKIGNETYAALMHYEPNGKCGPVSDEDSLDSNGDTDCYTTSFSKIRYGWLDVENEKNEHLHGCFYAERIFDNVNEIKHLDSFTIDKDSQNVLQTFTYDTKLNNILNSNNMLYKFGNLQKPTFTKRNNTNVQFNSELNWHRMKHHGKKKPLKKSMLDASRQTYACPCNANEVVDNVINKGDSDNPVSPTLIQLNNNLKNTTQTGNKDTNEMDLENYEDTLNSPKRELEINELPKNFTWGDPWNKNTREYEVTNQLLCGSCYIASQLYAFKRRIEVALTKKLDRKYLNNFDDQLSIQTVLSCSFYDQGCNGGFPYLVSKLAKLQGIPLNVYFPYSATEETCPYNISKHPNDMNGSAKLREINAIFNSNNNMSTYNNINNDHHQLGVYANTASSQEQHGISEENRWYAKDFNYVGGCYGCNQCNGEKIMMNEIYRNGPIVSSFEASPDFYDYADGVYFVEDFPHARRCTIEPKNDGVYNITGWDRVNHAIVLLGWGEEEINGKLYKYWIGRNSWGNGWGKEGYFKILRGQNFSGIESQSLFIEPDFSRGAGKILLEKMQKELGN

SMILES | % Inhibition @ 10 uM [%]
O=C(NC12CC3CC(CC(C3)C1)C2)c1cc2n(n1)C(C(F)(F)F)CC(c1cccs1)N2 (stereo not drawn) | -0.0938
COc1ccc2[nH]c3c(c2c1)CCNC3C1CC=C(C)CC1 (stereo not drawn) | -3
CC(=O)c1c(-c2ccc(C)cc2)nc2n(CCN3CCCCC3)c3ccccc3n12 | 0.345
CNc1ccc2cccc(Oc3ccc4cccc(O)c4n3)c2n1 | -7.25
CN1C(=O)C(=Cc2ccc(OCC(=O)O)c(Cl)c2)C(=O)N(C)C1=O | -4.7
Cc1ccc(OCC(=O)Nc2ccc(S(=O)(=O)N3CCOCC3)cc2)c(C)c1 | -5.14
Cc1ccc(S(=O)(=O)n2nc(-c3ccco3)nc2NCc2ccccc2)cc1 | -11
CSc1ncc(Cl)c(C(=O)N2CCN(C(c3ccccc3)c3ccccc3)CC2)n1 | 0.362
Cn1c(=O)c2ccccc2n2c(CCC(=O)N3CCN(Cc4ccccc4)CC3)nnc12 | 2.6
O=C(CN1C(=O)c2ccccc2Sc2ncccc21)N1CCN(C(=O)c2ccco2)CC1 | -4.16
CCc1ccc(-c2cc(C(F)(F)F)n3nccc3n2)s1 | -2.54
CCOC(=O)N1CCN(C(=O)c2cc(-c3ccncc3)nc3ccccc23)CC1 | -2.26
C=CCSc1nnc2c3sc4nc(N5CCOCC5)c5c(c4c3ncn12)CC(C)(C)OC5 | -1.82
COc1ccccc1/C=C(\NC(=O)c1ccccc1)C(=O)Nc1ccc(C)cc1C | -2.51
O=C(Cn1c2ccccc2n2nc(-c3cccs3)nc12)c1ccccc1 | 2.03
C=CCn1c(SCC(=O)Nc2ccc(NC(C)=O)cc2)nc2sc3c(c2c1=O)CCC3 | 9.33
CCCCCn1c(C)nc2c(sc3nc4c(cc32)COC(C)(C)C4)c1=O | 0.673
CCCn1c(=O)c2sccc2n2c(CCCC(=O)NC3CCCCC3C)nnc12 (stereo not drawn) | -3.88
COc1cc(OC)cc(C2=N/C(=C\c3ccc(C)cc3)C(=O)O2)c1 | -10
Fc1ccc(N2CCN(C3CC4CCC3C4)CC2)cc1 (stereo not drawn) | 0.217
COc1cc(/C=C/C(=O)NCCn2ccc3ccccc32)cc(OC)c1OC | -2.24
O=C(CCC(=O)Nc1cccc2ccccc12)Nc1cccc2ccccc12 | 0.324
CC(CCc1ccccc1)NCc1ccc(C(=O)O)s1 (stereo not drawn) | -2.37
CCc1nnc(NC(=O)c2cccc(Cl)c2Cl)s1 | 12
Cc1ccc(S(=O)(=O)Cc2ccc(C(=O)N3CCN(Cc4ccccc4)CC3)o2)cc1 | -4.96

SMILES | % Inhibition @ 10 uM [%]
Cc1nc2c(c(C)nn2-c2ccccc2)c(C)c1CCC(=O)N1CCN(Cc2ccccc2)CC1 | -2.45
COc1cc(S(=O)(=O)N2CCOCC2)c(OC)c2c(C)cc(O)nc12 | 3.47
CC(C)n1cnc2cc(NC(=O)c3cccs3)ccc21 | 7.58
CCC(C(=O)NCCCN(CC)Cc1ccccc1)n1nc(C)c2sc3ccccc3c2c1=O (stereo not drawn) | -0.229
Cc1ccc(S(=O)(=O)CC(=O)NC(C)(C)C)cc1 | 3.49
CCc1cc(=O)oc2c3c(c(Cl)cc12)OCN(Cc1ccccc1OC)C3 | -4.39
CCn1c(=O)sc2cccc(Cl)c21 | 8.45
COC(=S)NC(=O)/C=C/c1ccccc1 | -0.833
Cc1ccccc1CNC(=O)CN1C(=O)c2ccccc2S1(=O)=O | 1.64
Cc1ccc(S(=O)(=O)c2nc(S(C)(=O)=O)sc2NCCCN(C)C)cc1 | 1.15
CCCCOc1cccc(C2C(C(=O)c3ccc(C)o3)=C(O)C(=O)N2c2nccs2)c1 (stereo not drawn) | 4.88
Cc1c(C=O)c(C(=O)O)c(C)n1Cc1ccccc1Cl | -3.53
O=C(NCc1ccccc1Cl)C(Cc1ccccc1)NS(=O)(=O)c1cccc2cccnc12 (stereo not drawn) | -0.458
O=C(Nc1ccc(Cl)cc1)Nc1ccc(Cl)c(C(=O)O)c1 | -3.65
O=S(=O)(c1cccc2nonc12)N1CCN(c2cccc(Cl)c2)CC1 | -3.69
O=S(=O)(c1ccccc1)c1cnc2cc3c(cc2c1O)OCCO3 | -0.0115
Cc1nc2ccn(Cc3cccnc3)c(=O)c2cc1C(=O)NC1CCCCC1 | -6.31
NC(=O)C1CCN(Cc2ccc(Cl)c(Cl)c2)CC1 | -3.64
CCOCCCNC(=O)CS(=O)Cc1nc(-c2ccccc2C)oc1C (stereo not drawn) | 0.689
CCCCC1CN(C)CCC1(O)c1ccccc1 (stereo not drawn) | 4.04
CCCCn1c(=O)c(C(=O)Nc2ccc(C)cc2C)c(O)c2ccccc21 | -3.27
COc1ccc(CN2CCN(C/C=C/c3ccccc3)CC2)c(C)c1C | 3.8
COc1ccc(Br)cc1CNC(=O)c1cnc(SC)nc1C | -1.08
CCSc1nnc(NC(=O)C(NS(=O)(=O)c2cccc3nsnc23)C(C)C)s1 (stereo not drawn) | -6.03
COc1ccc(-c2nn(C)c(=O)c3ccccc23)cc1CNS(=O)(=O)c1ccc(Cl)cc1 | 0.413

SMILES | % Inhibition @ 10 uM [%]
CC(C)NC(=O)/C=C/c1ccc(C(C)C)cc1 | 1.92
COc1ccc(-n2c(SCC(=O)O)nnc2-c2ccc(OC)c(OC)c2)cc1 | -0.495
COc1ccc(CN(C(=O)c2nc(SC(C)C)ncc2Cl)C2CCS(=O)(=O)C2)cc1 (stereo not drawn) | 2.41
CCC(CC)C(C#N)NC(=O)[C@H](CC(C)C)NC(=O)OCc1ccccc1 (stereo partly drawn) | -1.41
CCCN(CCC)C(=O)C1CCCN(c2ncnc3onc(C)c23)C1 (stereo not drawn) | -1.52
CC(C)CC(CC(C)C)C(=O)NCC#N | 3.19
COc1ccc(Cl)cc1C(=O)Nc1sc(C)c(C)c1C#N | 2.44
Cc1nnc(N2CCCC(C(=O)NC(C)c3ccccc3)C2)c2nn(-c3ccc(Cl)cc3)c(C)c12 (stereo not drawn) | 4.23
CC(=O)C1=C(N2CCCCC2)c2ccc(-c3ccccc3)n2C1=O | -2.5
CCOC(=O)c1c(C)n(Cc2ccc3c(c2)OCO3)c2ccc(O)cc12 | -2.39
N#Cc1ccc(-c2cccnc2)nc1SCC(=O)O | -2.45
CN1CC=C2C(C#N)=C(N)C(C#N)(C#N)C(c3cccs3)C2C1 (stereo not drawn) | 3.77
C=CCNC(=O)/C(NC(=O)c1ccccc1)=C(/Sc1ccc(Cl)cc1)c1ccccc1 | -3.98
O=S(=O)(Nc1nc2ccccc2nc1N1CCN(c2ccccn2)CC1)c1ccc(Cl)cc1 | -0.704
CCOC(=O)N1CCC(NC(=O)c2sc3nc(C)cc(C)c3c2-n2cccc2)CC1 | 2.27
O=S(=O)(/N=C/c1c(O)ccc2ccccc12)c1cccs1 | -3.14
CC12CN3CC(c4ccccc4)(CN(C1)C3c1ccccc1)C2=O (stereo not drawn) | 6.7
COc1ccc(CN2C(=O)c3cccnc3C2=O)cc1S(=O)(=O)NCc1ccc(C)o1 | -3.45
Cc1cc(C)c(Cn2c(C)c(CNCc3ccc(C)o3)c(C(=O)O)c2C)c(C)c1 | 7.46
CCN(C(=O)c1ccc(Br)cc1)c1ccccc1C | -1.22
CCC(CC)c1nc(O)c2ccccc2n1 | 4.25
COc1cc(COC(=O)N[C@@H](CC(C)C)C(=O)NCC#N)cc(OC)c1 | 0.174
Cc1cc(N2CCCCC2)nc(N(CCO)CCO)n1 | 4.42
Cc1ccc(C)c(OCCCn2cc(C(=O)O)c3ccccc32)c1 | 0.627
CCOc1ccccc1OCc1nn2c(-c3ccc(C(C)(C)C)cc3)nnc2s1 | -5.62

SMILES | % Inhibition @ 10 uM [%]
CN(C)Cc1ccccc1C(O)(c1ccccc1)c1ccccc1 | -4.26
CN(CC(=O)NCc1ccc2c(c1)OCO2)S(=O)(=O)c1cccc2nsnc12 | 2
CCCCCC1CCC(c2ccc(C(=O)N3CCOCC3)cc2)CC1 (stereo not drawn) | -3.35
CCCN1CCN(C(=O)Cn2nc(C)n3c(cc4c(OC)cccc43)c2=O)CC1 | -3.47
OCCn1nc(-c2ccccc2)cc1-c1ccccc1 | 0.612
Cc1ccc(CNC(=O)C2Sc3nnc(C)n3NC2c2ccccc2)cc1 (stereo not drawn) | -9.37
Cn1c(=O)c2c(O)c3c(nc2n(C)c1=O)CCCC3 | 4
CCOc1ccc(-c2nn(-c3ccccc3)cc2/C=N/C2CCS(=O)(=O)C2)cc1C (stereo not drawn) | -1.25
C/N=c1\c(NC(=O)c2c(-c3ccccc3Cl)noc2C)c(O)oc2ccccc12 | -0.0709
Cc1[nH]c2ccc([N+](=O)[O-])cc2c1C | 2.62
O=C(O)c1cc(C(=O)O)cc(N2C(=O)C3C4C=CC(C4)C3C2=O)c1 (stereo not drawn) | -1.77
O=C(CNS(=O)(=O)c1ccc(F)cc1)N1CCCCCC1 | 3.75
Cc1ccc(N2C(=O)C(C)SC23C(=O)Nc2ccccc23)cc1 (stereo not drawn) | 3.88
Cc1ccccc1OCCCCn1nnc2sc3c(c2c1=O)CCCC3 | -2.71
O=C(CNC(=O)c1cccs1)NC1CCCCCCC1 | 2.05
CCCCN(C)C(=O)Cn1ncc2c1-c1ccccc1OC2 | 0.0579
CCOC(=O)N1CCN(S(=O)(=O)c2ccc(-c3cc(C(F)(F)F)no3)s2)CC1 | -1.05
O=C(NCCSCc1ccco1)c1ccc(CN2CCc3ccccc3C2)cc1 | 1.63
N#CC1=C(N)OC2=C(CCCC2)C1c1ccc(F)cc1 (stereo not drawn) | -0.294
Cc1ccc(S(=O)(=O)CC2CSc3nnc(C)c(=O)n32)cc1 (stereo not drawn) | 1.91
CCOc1ccc(/C=C/c2nc(C#N)c(N3CCOCC3)o2)cc1 | 0.895
CC(Cc1cccc(C(F)(F)F)c1)NCCN1CCCCC1 (stereo not drawn) | -3.42
COc1cccc(CNC(=O)CCCN2C(=O)C(c3ccccc3)Oc3cccnc32)c1OC (stereo not drawn) | 2.33
Cc1c2cnn(CC(=O)N3CCOCC3)c(=O)c2c(C)n1Cc1ccccc1F | -0.447
